# In all, about 3,200 compounds went through this assay and about 75 (2%) showed an effect of 50% or more. The list shows a part of the results.
# Test system: T1, S. aureus MSSA476
# T1 construct: MSSA476
# Parameters: species or system S. aureus MSSA476 (TSB) or V. cholerae SAD30 (LB); 384-well bacterial growth screen at 25 uM, OD600 relative to DMSO control
# Conditions: relative growth, OD600, TSB; 25 µM; inhibitor
row,Compound,% of control remaining [%]
1,"C=CC(=O)NCc1ccc(C(=O)N2CCCC2)cc1 [3-O05, N-{[4-(pyrrolidine-1-carbonyl)phenyl]methyl}prop-2-enamide]",88.8115
2,"CNC(=O)c1cc(OC2CCCN(C(=O)CCl)C2)ccn1 (centres unmarked) [5-P05, 4-{[1-(2-chloroacetyl)piperidin-3-yl]oxy}-N-methylpyridine-2-carboxamide]",85.9745
3,"Cc1ccc(C=C(C#N)C(=O)NC(N)=O)o1 [8-D21, {2-cyano-2-[(5-methylfuran-2-yl)methylidene]acetyl}urea]",99.917
4,"COc1ccc(-c2csc(NC(=O)CCl)n2)c(OC)c1 [4-F12, 2-chloro-N-[4-(2,4-dimethoxyphenyl)-1,3-thiazol-2-yl]acetamide]",83.4683
5,"CC(Cl)C(=O)Nc1ccc2ccccc2c1 (centres unmarked) [5-H10, 2-chloro-N-(naphthalen-2-yl)propanamide]",121.311
6,"CC(C)CNC(=O)c1ccccc1NC(=O)CCl [4-E04, 2-(2-chloroacetamido)-N-(2-methylpropyl)benzamide]",88.4231
7,"Cc1ccc(C(=O)c2ccccc2NC(=O)CCl)cc1 [4-N17, 2-chloro-N-[2-(4-methylbenzoyl)phenyl]acetamide]",134.54
8,"CC(Cl)C(=O)Nc1ncnc2[nH]cnc12 (centres unmarked) [6-I18, 2-chloro-N-(9H-purin-6-yl)propanamide]",96.9756
9,"Cl.O=C1C=CC(=O)N1C1CNC1 [10-O19, 1-(azetidin-3-yl)-2,5-dihydro-1H-pyrrole-2,5-dione hydrochloride]",105.313
10,"N#CC(=CC1=Cc2ccccc2OC1)C(=O)Nc1ccc(C(=O)O)cc1 [8-N08, 4-[3-(2H-chromen-3-yl)-2-cyanoprop-2-enamido]benzoic acid]",101.245
11,"CC(Cl)C(=O)NCCN(C)S(=O)(=O)c1cccs1 (centres unmarked) [7-F05, 2-chloro-N-[2-(N-methylthiophene-2-sulfonamido)ethyl]propanamide]",88.54
12,"COc1cc(NC(=O)C(C)Cl)cc(OC)c1 (centres unmarked) [4-I04, 2-chloro-N-(3,5-dimethoxyphenyl)propanamide]",105.574
13,"N#CC(C(=O)Nc1ccc2c(c1)OCCO2)=C1N=C(N)c2ccccc21 [8-L03, 2-(3-amino-1H-isoindol-1-ylidene)-2-cyano-N-(2,3-dihydro-1,4-benzodioxin-6-yl)acetamide]",128.133
14,"CC(Cl)C(=O)NC(C)c1nnc2n1CCCC2 (centres unmarked) [6-H13, 2-chloro-N-(1-{5H,6H,7H,8H-[1,2,4]triazolo[4,3-a]pyridin-3-yl}ethyl)propanamide]",109.268
15,"CCN(C(=O)CCl)C(c1ccccc1)c1ccc(F)cc1 (centres unmarked) [6-J11, 2-chloro-N-ethyl-N-[(4-fluorophenyl)(phenyl)methyl]acetamide]",92.878
16,"O=C1C=CC(=O)N1c1ccc2ccccc2c1 [10-D07, 1-(naphthalen-2-yl)-2,5-dihydro-1H-pyrrole-2,5-dione]",3.125
17,"Cc1noc(C)c1C(=O)CCl [10-K13, 2-chloro-1-(3,5-dimethyl-1,2-oxazol-4-yl)ethan-1-one]",89.375
18,"C=CC(=O)Nc1ccoc1C(=O)c1ccc(C)cc1 [1-A04, N-[2-(4-methylbenzoyl)furan-3-yl]prop-2-enamide]",113.934
19,"CC1CN(S(=O)(=O)c2ccc(NC(=O)CCl)cc2)CC(C)O1 (centres unmarked) [5-O15, 2-chloro-N-{4-[(2,6-dimethylmorpholin-4-yl)sulfonyl]phenyl}acetamide]",94.7177
20,"C=CC(=O)Nc1ccc(CN2CCC(C)CC2)cc1 [1-D21, N-{4-[(4-methylpiperidin-1-yl)methyl]phenyl}prop-2-enamide]",103.033
21,"C=CC(=O)NCc1nnc(COC)[nH]1 [3-F10, N-{[5-(methoxymethyl)-4H-1,2,4-triazol-3-yl]methyl}prop-2-enamide]",90.9012
22,"C=CCNC(=O)C(C#N)=Cc1cc(C)n(-c2ccc(C)cc2)c1C [8-C17, 2-cyano-3-[2,5-dimethyl-1-(4-methylphenyl)-1H-pyrrol-3-yl]-N-(prop-2-en-1-yl)prop-2-enamide]",70.0415

row,Compound,% of control remaining [%]
1,"C=CC(=O)NCc1cc(-c2cccc(OC)c2)no1 [1-I11, N-{[3-(3-methoxyphenyl)-1,2-oxazol-5-yl]methyl}prop-2-enamide]",116.747
2,"C=CC(=O)N1CCCC(S(=O)(=O)NC)C1 (centres unmarked) [3-D17, N-methyl-1-(prop-2-enoyl)piperidine-3-sulfonamide]",96.8219
3,"C=CC(=O)Nc1ccc(C2=NNC(=O)CO2)cc1 [3-L18, N-[4-(5-oxo-5,6-dihydro-4H-1,3,4-oxadiazin-2-yl)phenyl]prop-2-enamide]",120.853
4,"CC(Cl)C(=O)N(Cc1ccc(Cl)cc1)Cc1cnn(C)c1 (centres unmarked) [5-P17, 2-chloro-N-[(4-chlorophenyl)methyl]-N-[(1-methyl-1H-pyrazol-4-yl)methyl]propanamide]",95.4463
5,"C=CC(=O)NCc1ccc(-n2ccc(C)n2)nc1 [3-H16, N-{[6-(3-methyl-1H-pyrazol-1-yl)pyridin-3-yl]methyl}prop-2-enamide]",95.7771
6,"CC(Cl)C(=O)N1CCOCC1c1nc(-c2cccs2)no1 (centres unmarked) [7-B17, 2-chloro-1-{3-[3-(thiophen-2-yl)-1,2,4-oxadiazol-5-yl]morpholin-4-yl}propan-1-one]",100.157
7,"C=CC(=O)N1CCC(C(=O)N2CCc3ccc([N+](=O)[O-])cc32)CC1 [1-C06, 1-[4-(6-nitro-2,3-dihydro-1H-indole-1-carbonyl)piperidin-1-yl]prop-2-en-1-one]",93.8901
8,"C=CC(=O)N[C@H]1CCCC[C@H]1n1cc(C(C)(C)O)nn1 [1-P07, N-[(1S,2R)-2-[4-(2-hydroxypropan-2-yl)-1H-1,2,3-triazol-1-yl]cyclohexyl]prop-2-enamide]",85.8022
9,"Cn1ccnc1Sc1ccc(C=C(C#N)C(N)=O)cc1[N+](=O)[O-] [8-D03, 2-cyano-3-{4-[(1-methyl-1H-imidazol-2-yl)sulfanyl]-3-nitrophenyl}prop-2-enamide]",97.9253
10,"CN(C)S(=O)(=O)c1ccccc1CNC(=O)CCl [4-J22, 2-chloro-N-{[2-(dimethylsulfamoyl)phenyl]methyl}acetamide]",126.155
11,"Cc1ccc(NC(=O)N2CCSSCC2)c(C)c1 [10-F11, N-(2,4-dimethylphenyl)-1,2,5-dithiazepane-5-carboxamide]",91.5625
12,"C=CC(=O)N1CCC(C(=O)N[C@H](C)c2ccc3c(c2)CCCC3)CC1 [3-P12, 1-(prop-2-enoyl)-N-[(1R)-1-(5,6,7,8-tetrahydronaphthalen-2-yl)ethyl]piperidine-4-carboxamide]",85.677
13,"O=C(CCl)NC1CCS(=O)(=O)c2ccc(F)cc21 (centres unmarked) [7-H06, 2-chloro-N-(6-fluoro-1,1-dioxo-3,4-dihydro-2H-1lambda6-benzothiopyran-4-yl)acetamide]",94.1915
14,"N#CC(=Cc1ccc(O)c(O)c1)C(=O)Nc1cccc(Cl)c1Cl [8-F07, 2-cyano-N-(2,3-dichlorophenyl)-3-(3,4-dihydroxyphenyl)prop-2-enamide]",87.3029
15,"C=CC(=O)NCCS(=O)(=O)c1cccs1 [3-J17, N-[2-(thiophene-2-sulfonyl)ethyl]prop-2-enamide]",101.001
16,"COc1ccc(C=C(C#N)C(=O)Nc2ccc(C(=O)O)cc2)cc1O [9-F10, 4-[2-cyano-3-(3-hydroxy-4-methoxyphenyl)prop-2-enamido]benzoic acid]",85.6929
17,"C=CC(=O)NCc1ncc(C)o1 [2-P21, N-[(5-methyl-1,3-oxazol-2-yl)methyl]prop-2-enamide]",87.7285
18,"CC(Cl)C(=O)NCC(NS(=O)(=O)N(C)C)C1CCCC1 (centres unmarked) [7-G16, 2-chloro-N-{2-cyclopentyl-2-[(dimethylsulfamoyl)amino]ethyl}propanamide]",86.6562
19,"Cc1cccc(C=C(C#N)C(=O)NC(C)C)c1 [8-J07, 2-cyano-3-(3-methylphenyl)-N-(propan-2-yl)prop-2-enamide]",108.216
20,"C=CC(=O)Nc1cc(C)n(CC(C)c2nnc3n2CCCCC3)n1 (centres unmarked) [2-A17, N-[5-methyl-1-(2-{5H,6H,7H,8H,9H-[1,2,4]triazolo[4,3-a]azepin-3-yl}propyl)-1H-pyrazol-3-yl]prop-2-enamide]",146.91
21,"Cc1cc(C=C(C#N)C(N)=O)c(C)n1-c1cccc2ccccc12 [9-I12, 2-cyano-3-[2,5-dimethyl-1-(naphthalen-1-yl)-1H-pyrrol-3-yl]prop-2-enamide]",110.262
22,"C=CC(=O)N1CCC(C(=O)N[C@H]2CC[C@@H]2O)(c2ccccc2)CC1 (racemic) [3-G08, rac-N-[(1R,2R)-2-hydroxycyclobutyl]-4-phenyl-1-(prop-2-enoyl)piperidine-4-carboxamide]",112.843

# From publication PMC11995724, “Antibiotic target discovery by integrated phenotypic and activity-based profiling of electrophilic fragments” (Cell chemical biology, 2025)
